# In patent US10729694B2 (AI Therapeutics, Inc., priority 2015, dated 2020):
# Tested on: CYP3A4, CYP1A2, CYP2D6
# Conditions: human
compound,measurement,value
Cc1cccc(/C=N/Nc2cc(N3CCOCC3)nc(OCCc3ccccn3)n2)c1 [apilimod],enzymes contributing to metabolism,"CYP3A4 and to a lesser extent CYP1A2 and/or CYP2D6, contribute to metabolism"
